About 220 (0.56%) of roughly 39,000 compounds showed activity. The list shows a part of the results.
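Also: static incubation at 37 °C against the wild-type strain, values averaged over two biological replicates.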

For the test, the system named is Escherichia coli K-12 BW25113. Put plainly: relative growth (OD600 normalised to plate interquartile mean) (fraction); higher = less growth inhibition, active = 0.2 or less. The note with it: 50 µM; LB; incubation time: overnight (16-24 h).
Regarding `C[C@@H]1CN([C@H](C)CO)C(=O)Cc2cc(NS(C)(=O)=O)ccc2O[C@H]1CN(C)C(=O)Nc1ccc(C(F)(F)F)cc1`, the relative growth was inactive: 0.926.
Next, `O=C1NCCc2c(O)cccc21`: inactive: 1.02.
The result for `C#CC1(O)CCC2C3CCC4=CCCCC4C3C(=C)CC21CC` (stereo not drawn) reads inactive: 0.991; that for `COCC#Cc1ccc2c(c1)O[C@H](CN(C)C(=O)Nc1ccc(OC)cc1)[C@@H](C)CN([C@@H](C)CO)S2(=O)=O`, inactive: 1.02; that for `C[C@H]1CN([C@@H](C)CO)C(=O)Cc2cc(NC(=O)NC3CCCCC3)ccc2O[C@H]1CN(C)Cc1ccc(C(F)(F)F)cc1`, inactive: 0.982.
The result for `COc1cc(/C=C/C(=O)C2=C(NCCc3ccccc3)S[C@H](c3ccc(O)c(OC)c3)CC2=O)ccc1O` reads inactive: 1.04.
Turning to `Cc1ccc(-c2cnc3c(c2)C(=O)N([C@@H](C)CO)C[C@@H](C)[C@@H](CN(C)C(=O)Cc2cccnc2)O3)cc1`, the relative growth is inactive: 0.973.
The result for `CCC(=O)N1C[C@]2(CN(C2)S(=O)(=O)C)c2c(n(c3cc(ccc23)OC)C)[C@H]1CO` reads inactive: 0.994; that for `C[C@@H]1CCCCO[C@@H](CN(C)C(=O)CCCN(C)C)[C@@H](C)CN([C@H](C)CO)C(=O)c2cc(NC(=O)Nc3ccc(F)cc3)ccc2O1`, inactive: 0.986; that for `O=C(C[C@H]1CC[C@@H]2[C@H](COC[C@@H](O)CN2C(=O)Nc2ccc3c(c2)OCO3)O1)N1CCN(c2ccccc2)CC1`, inactive: 1.03.
For the compound `CO[C@H]1C[C@@H](O[C@@H]2/C(C)=C/C[C@@H]3C[C@@H](C[C@]4(CC[C@H](C)[C@@H](C5CCCCC5)O4)O3)OC(=O)[C@@H]3C=C(C)/C(=N/O)[C@H]4OC/C(=C\C=C\[C@@H]2C)[C@]43O)O[C@@H](C)[C@@H]1O`, the relative growth was inactive: 0.946.
As to `CC(=O)N1[C@H](Cn2cncn2)C[C@H]2CN(S(C)(=O)=O)CC[C@H]21`, the relative growth was inactive: 0.956.
For the compound `Cc1noc(C)c1S(=O)(=O)Nc1ccc2c(c1)CC(=O)N([C@H](C)CO)C[C@H](C)[C@H](CN(C)S(=O)(=O)c1ccc(Cl)cc1)O2`, the relative growth is inactive: 0.992.
Consider `C[C@@H]1CN([C@H](C)CO)C(=O)c2cccc(NS(=O)(=O)c3cccs3)c2O[C@@H]1CN(C)S(=O)(=O)c1ccccc1`, for which the relative growth was inactive: 0.994.
In the case of `O=C1CN(S(=O)(=O)Cc2ccccc2)C[C@H]2[C@H](c3ccc(C#Cc4cccc(F)c4)cc3)[C@H](CO)N12`, the relative growth was inactive: 0.992.
Next, `CCCC(=O)OC1(C(=O)CO)CCC2C3CCC4=CC(=O)CCC4(C)C3C(O)CC21C` (stereo not drawn): inactive: 1.08; `C[C@H](CO)N1C[C@H](C)[C@H](CN(C)Cc2ccccc2)Oc2ccc(NC(=O)Nc3ccc(C(F)(F)F)cc3)cc2C1=O`: inactive: 0.982; `Cc1ccc(S(=O)(=O)Nc2ccc3c(c2)CC(=O)N([C@@H](C)CO)C[C@H](C)[C@@H](CN(C)C(=O)Nc2cccc4ccccc24)O3)cc1`: inactive: 1.01.
Consider `CC(C)NC(=O)N(C)C[C@@H]1Oc2c(NC(=O)Nc3ccc4c(c3)OCO4)cccc2C(=O)N([C@@H](C)CO)C[C@@H]1C`, for which the relative growth was inactive: 0.998.
On to `Cc1noc(C)c1S(=O)(=O)Nc1ccc2c(c1)C(=O)N([C@H](C)CO)C[C@@H](C)[C@@H](CN(C)Cc1ccncc1)O2`, for which the relative growth is inactive: 0.974.
Next, `C[C@@H]1CN([C@H](C)CO)C(=O)c2cc(NC(=O)Nc3ccccc3)ccc2O[C@@H]1CN(C)CC1CCCCC1`: inactive: 0.983; `O=C(Nc1ncc(SCCN2CCCC2)s1)[C@]1(c2ccc(S(=O)(=O)C3CC3)cc2)C[C@H]1C1CCCCC1`: inactive: 0.98; `C[C@@H]1CN([C@H](C)CO)C(=O)Cc2cc(NS(=O)(=O)c3cn(C)cn3)ccc2O[C@@H]1CN(C)Cc1ccccc1`: inactive: 1.03.
With `C[C@@H](O)C#Cc1ccc2c(c1)O[C@H](CN(C)C(=O)Cc1ccccn1)[C@@H](C)CN([C@@H](C)CO)S2(=O)=O`, the relative growth was inactive: 1.
Consider `CC(C)NC(=O)N(C)C[C@@H]1OCCCC[C@@H](C)Oc2ccc(NC(=O)Nc3ccc(C(F)(F)F)cc3)cc2C(=O)N([C@@H](C)CO)C[C@H]1C`, for which the relative growth was inactive: 0.967.
The result for `O=C(O)CCCCN(CCc1ccccc1OCc1ccc(CCc2ccccc2)cc1)Cc1ccc(C(=O)O)cc1` reads inactive: 1.04; that for `FC(F)(F)c1ccccc1/N=C1\CCCc2ccccc21`, inactive: 1.02; that for `COCC(=O)N[C@@H]1C[C@H](CO)[C@H](O)C1`, inactive: 0.974.
The result for `Cc1noc(C)c1S(=O)(=O)Nc1ccc2c(c1)C(=O)N([C@H](C)CO)C[C@H](C)[C@H](CN(C)S(=O)(=O)c1ccc(Cl)cc1)O2` reads inactive: 1.03.
Turning to `C[C@H](CO)N1C[C@H](C)[C@H](CN(C)C(=O)Nc2ccccc2)Oc2ccc(NC(=O)C3CC3)cc2CC1=O`, the relative growth is inactive: 0.985.
As for `CCCC1CCC(c2ccc(OC(=O)c3cccnc3)cc2)CC1` (stereo not drawn), the relative growth was inactive: 0.881.
Next, `C[C@@H]1CN([C@H](C)CO)C(=O)Cc2cc(NS(=O)(=O)c3ccc(Cl)cc3)ccc2O[C@@H]1CN(C)S(=O)(=O)c1cn(C)cn1`: inactive: 1.01.
Next, `O=C1C=C(O)C(=O)c2ccccc21`: inactive: 0.891.
Next, `O=C(C1CCC1)N1CCOCC1`: inactive: 1.04.
For the compound `C=CC[C@@H](CC(=O)N(CCO)Cc1ccccc1)C(=O)N[C@H](COC(=O)[C@@H](CC=C)Cc1ccc(F)cc1)c1ccccc1`, the relative growth was inactive: 0.916.
The result for `Cc1cc(C)nc(SCC(=O)NN)n1` reads inactive: 0.997.
The result for `COCC#Cc1ccc2c(c1)O[C@H](CN(C)S(=O)(=O)c1cccc(OC)c1)[C@@H](C)CN([C@H](C)CO)S2(=O)=O` reads inactive: 1.02.
Consider `COc1ccc(CNC(=O)C[C@@H]2C[C@H]3c4cc(NS(=O)(=O)c5ccc(F)cc5)ccc4O[C@H]3[C@@H](CO)O2)cc1`, for which the relative growth was inactive: 0.99.
As for `CN1CC(=O)NC1=O`, the relative growth is inactive: 1.
`Cc1ccc(S(=O)(=O)N(C)C[C@@H]2Oc3ccc(NC(=O)Nc4cccc5ccccc45)cc3CC(=O)N([C@@H](C)CO)C[C@H]2C)cc1`: the relative growth is inactive: 1.04.
With `C[C@H](CO)N1C[C@H](C)[C@H](CN(C)C(=O)CN2CCOCC2)Oc2cc(C#Cc3cccc(F)c3)ccc2S1(=O)=O`, the relative growth is inactive: 0.913.
The result for `CCS(=O)(=O)Nc1ccc2c(c1)C(=O)N(C)[C@H]1CC[C@H](CC(=O)NCc3ccccc3F)O[C@H]1CO2` reads inactive: 0.986; that for `C[C@H](CO)N1C[C@H](C)[C@@H](CN(C)C(=O)Nc2ccc3c(c2)OCO3)Oc2c(NS(C)(=O)=O)cccc2C1=O`, inactive: 0.981; that for `COCC(=O)Nc1ccc2c(c1)C(=O)N(C)[C@H]1CC[C@H](CC(=O)N3CCc4ccccc4C3)O[C@@H]1CO2`, inactive: 1.01.
On to `COc1ccc(S(=O)(=O)N(C)C[C@@H]2Oc3ccc(NS(=O)(=O)c4c(C)noc4C)cc3CC(=O)N([C@H](C)CO)C[C@H]2C)cc1`, for which the relative growth is inactive: 1.01.
As to `COc1ccc(CN(C)C[C@@H]2OCCCC[C@H](C)Oc3ccc(NS(=O)(=O)c4ccc(C)cc4)cc3C(=O)N([C@@H](C)CO)C[C@@H]2C)cc1`, the relative growth was inactive: 0.979.
With `C[C@@H]1CN([C@@H](C)CO)C(=O)c2c(c3ccccc3n2C)-c2ccccc2CO[C@@H]1CN(C)C(=O)Nc1cccc(Cl)c1Cl`, the relative growth was inactive: 1.02.
The result for `Cc1ccc(S(=O)(=O)N[C@@H](Cc2ccccc2)C(=O)NCCCn2cc(-c3cccc(/C=C/C(=O)NO)c3)nn2)cc1` reads inactive: 1.01; that for `COc1ccccc1C#Cc1cnc2c(c1)C(=O)N([C@@H](C)CO)C[C@@H](C)[C@@H](CN(C)S(=O)(=O)c1cn(C)cn1)O2`, inactive: 1.01; that for `CC(=O)NCCCS(=O)(=O)O`, inactive: 0.983.
Regarding `Cc1ccc(-c2ccc3c(c2)O[C@@H](CN(C)C(=O)CN(C)C)[C@H](C)CN([C@@H](C)CO)S3(=O)=O)cc1`, the relative growth was inactive: 1.01.
With `C[C@@H]1CN([C@H](C)CO)C(=O)Cc2cc(NS(=O)(=O)c3ccc(F)cc3)ccc2O[C@H]1CN(C)Cc1ccc(-c2ccccc2)cc1`, the relative growth was inactive: 0.982.
With `COc1ccc(NC(=O)Nc2ccc3c(c2)C(=O)N([C@H](C)CO)C[C@H](C)[C@@H](CN(C)C(=O)Nc2ccc(C(F)(F)F)cc2)O3)cc1`, the relative growth was inactive: 1.
`CC(C)C[C@@H](NC(=O)CCN)C(=O)O`: the relative growth is inactive: 0.982.
Consider `Cc1noc(C)c1NC(=O)Nc1ccc2c(c1)C(=O)N([C@@H](C)CO)C[C@H](C)[C@H](CN(C)Cc1ccccc1)OCCCC[C@@H](C)O2`, for which the relative growth was inactive: 0.996.
The result for `C[C@H]1CN([C@@H](C)CO)C(=O)c2cc(NC(=O)Cc3ccccc3)ccc2O[C@H]1CN(C)Cc1ccc(-c2ccccc2)cc1` reads inactive: 0.967; that for `C[C@H]1CN([C@@H](C)CO)C(=O)c2cc(NS(=O)(=O)c3cn(C)cn3)ccc2O[C@H]1CN(C)Cc1ccc2c(c1)OCO2`, inactive: 1.01; that for `CN(C)CCOC(c1ccccc1)c1ccccc1.Cl`, inactive: 1.12.
The result for `C[C@H]1CN([C@@H](C)CO)C(=O)c2cc(NC(=O)c3ccncc3)ccc2O[C@H]1CN(C)Cc1ccc2c(c1)OCO2` reads inactive: 0.986; that for `C[C@@H]1CCCCO[C@H](CN(C)C(=O)Nc2cccc3ccccc23)[C@@H](C)CN([C@H](C)CO)C(=O)c2cc(NS(=O)(=O)c3ccc(F)cc3)ccc2O1`, inactive: 1.03.
Next, `C[C@@H]1CCCCO[C@H](CN(C)S(C)(=O)=O)[C@@H](C)CN([C@H](C)CO)C(=O)c2cc(NS(=O)(=O)c3ccccc3)ccc2O1`: inactive: 0.99; `C[C@H]1CN([C@@H](C)CO)C(=O)c2cc(NC(=O)CCN3CCOCC3)ccc2O[C@@H]1CN(C)C(=O)NC1CCCCC1`: inactive: 0.985.
Take `C[C@@H]1CN([C@H](C)CO)C(=O)Cc2cc(NC(=O)C3CCCCC3)ccc2O[C@@H]1CN(C)Cc1ccc(Cl)c(Cl)c1`: the relative growth is inactive: 0.993.
